Some of the results follow. Values were computed here from the reads of four pooled replicates and scatter widely.

In this experiment the target is T1, Pho4 (S. cerevisiae) (UniProt P07270).
T1 sequence: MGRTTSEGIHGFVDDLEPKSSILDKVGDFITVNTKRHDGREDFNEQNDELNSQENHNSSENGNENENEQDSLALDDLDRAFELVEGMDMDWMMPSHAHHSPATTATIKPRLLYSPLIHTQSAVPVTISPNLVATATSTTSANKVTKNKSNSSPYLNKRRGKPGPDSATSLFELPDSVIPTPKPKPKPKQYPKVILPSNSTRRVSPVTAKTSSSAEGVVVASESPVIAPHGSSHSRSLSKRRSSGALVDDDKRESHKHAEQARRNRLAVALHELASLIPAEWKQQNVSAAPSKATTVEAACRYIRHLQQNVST
The experiment can be described thus: relative binding free energy (BET-seq); higher = weaker binding. The conditions noted are these: reference: library average.
On to CTTGTCACGTGTAGCG, for which the “relative binding free energy” value was found to be 0.1 kcal/mol.
As to TGCGCCACGTGTATGG, the “relative binding free energy” value turned out to be 0.03 kcal/mol.
Take GGGTACACGTGGTGAC: the “relative binding free energy” value worked out at 0.02 kcal/mol.
As to GATGGCACGTGGTCAG, the “relative binding free energy” value is -0.23 kcal/mol.
On to TATTTCACGTGGGTGT, for which the “relative binding free energy” value was 0.18 kcal/mol.
As to GTGTGCACGTGCATTT, the “relative binding free energy” value was found to be 0.08 kcal/mol.
With GTTGTCACGTGGTGTC, the “relative binding free energy” value was determined as 0.01 kcal/mol.
With GTTGACACGTGTATGG, the “relative binding free energy” value was found to be 0.05 kcal/mol.
As for TATCTCACGTGGGGAT, the “relative binding free energy” value was 0.16 kcal/mol.
ATGGGCACGTGGATTT: the “relative binding free energy” value is 0.04 kcal/mol.
For ACATACACGTGTGGTG the value was -0.04 kcal/mol.
With ATATTCACGTGGGTGG, the “relative binding free energy” value is 0.14 kcal/mol.
Consider GTGTTCACGTGCCGTG, for which the “relative binding free energy” value was determined as 0.09 kcal/mol.
For TTTGCCACGTGTAAGG the value was 0.07 kcal/mol; for TGTCACACGTGAGGGG, 0.2 kcal/mol.
For the sequence GTGGGCACGTGTATCT, the “relative binding free energy” value was -0.05 kcal/mol.
As to TTCATCACGTGCGGTG, the “relative binding free energy” value is 0.14 kcal/mol.
As for AACTGCACGTGTATGT, the “relative binding free energy” value is 0.01 kcal/mol.
As for AGTGACACGTGTTTCT, the “relative binding free energy” value was 0 kcal/mol.
As for AGTAACACGTGCGGGT, the “relative binding free energy” value was -0.15 kcal/mol.
For the sequence CTTAGCACGTGGTATA, the “relative binding free energy” value was -0.2 kcal/mol.
Turning to TGCAGCACGTGCTTGT, the “relative binding free energy” value is -0.09 kcal/mol.
For GCGAGCACGTGTAGTG the value was -0.07 kcal/mol.
Take TAAGTCACGTGGTCTT: the “relative binding free energy” value turned out to be 0.09 kcal/mol.
For the sequence TAGGGCACGTGGGACG, the “relative binding free energy” value is -0.19 kcal/mol.
Under GGCTGCACGTGGGCTG stands -0.12 kcal/mol; under GTTTTCACGTGTTCGG, 0.29 kcal/mol.
In the case of TTGTACACGTGTTCAG, the “relative binding free energy” value is -0.08 kcal/mol.
With GGGAACACGTGAAAGT, the “relative binding free energy” value worked out at 0.47 kcal/mol.
For GTAAACACGTGTGTGA, the “relative binding free energy” value turned out to be 0.13 kcal/mol.
For GTATGCACGTGAGGTC the value was 0.22 kcal/mol; for AGGTTCACGTGGTGTT, 0.22 kcal/mol.
For the sequence CAGTTCACGTGGGAAG, the “relative binding free energy” value came out at 0.36 kcal/mol.
ATGTCCACGTGGGGTA: the “relative binding free energy” value was -0.14 kcal/mol.
For the sequence GTTGTCACGTGTGGTG, the “relative binding free energy” value came out at 0.14 kcal/mol.
In the case of GGCGGCACGTGAGGGA, the “relative binding free energy” value stood at 0.12 kcal/mol.
On to TCTAGCACGTGTTATT, for which the “relative binding free energy” value is -0.06 kcal/mol.
For the sequence CATGTCACGTGTGTTT, the “relative binding free energy” value was -0.04 kcal/mol.
TATGGCACGTGGGTAT: the “relative binding free energy” value is -0.14 kcal/mol.
Turning to AGTTGCACGTGTTGGG, the “relative binding free energy” value turned out to be 0.01 kcal/mol.
Under TGTTACACGTGTAGTC stands 0.12 kcal/mol; under AACGTCACGTGTTTGT, -0.04 kcal/mol; under GTGGCCACGTGTGTAG, -0.09 kcal/mol.
Consider CGGCACACGTGTGTTG, for which the “relative binding free energy” value is -0.04 kcal/mol.
As for GTCATCACGTGGAATG, the “relative binding free energy” value was 0.28 kcal/mol.
Under AAAGCCACGTGTTAGG stands 0.07 kcal/mol; under GGTTACACGTGGCGTG, 0.04 kcal/mol.
As to GGGTTCACGTGGCGCT, the “relative binding free energy” value is 0.21 kcal/mol.
For TGAGACACGTGCGCTG, the “relative binding free energy” value was found to be 0.09 kcal/mol.
Turning to TCGTACACGTGTTGCT, the “relative binding free energy” value turned out to be 0.04 kcal/mol.
Take TTGCTCACGTGGTATA: the “relative binding free energy” value is -0.01 kcal/mol.
On to TATATCACGTGTTTAC, for which the “relative binding free energy” value was 0.12 kcal/mol.
Consider GTTGACACGTGGGCTG, for which the “relative binding free energy” value amounted to 0.01 kcal/mol.
Take TTCGTCACGTGGATAT: the “relative binding free energy” value was 0.19 kcal/mol.
Take TTGTTCACGTGTTCTA: the “relative binding free energy” value was 0.24 kcal/mol.
Consider TTGTCCACGTGGGCTA, for which the “relative binding free energy” value turned out to be 0.1 kcal/mol.
For the sequence CTCGTCACGTGTGAGT, the “relative binding free energy” value came to 0.1 kcal/mol.
As to TCGGACACGTGGTATG, the “relative binding free energy” value came out at 0 kcal/mol.
On to TTGATCACGTGCGTGA, for which the “relative binding free energy” value was 0.05 kcal/mol.
For GTCTTCACGTGTGGGT, the “relative binding free energy” value came out at 0.33 kcal/mol.
On to TTAGGCACGTGTATGA, for which the “relative binding free energy” value is -0.08 kcal/mol.
Under ATTTTCACGTGACGAG stands 0.35 kcal/mol; under ATGCTCACGTGCTTGG, 0.2 kcal/mol.
For the sequence CGGGTCACGTGAAGTT, the “relative binding free energy” value stood at 0.45 kcal/mol.
Take ATTATCACGTGATAGT: the “relative binding free energy” value is 0.27 kcal/mol.
In the case of GAAGTCACGTGGAGTT, the “relative binding free energy” value was 0.2 kcal/mol.
Turning to TGGTGCACGTGCGTGC, the “relative binding free energy” value is -0.1 kcal/mol.
Take CCTGGCACGTGCGGGT: the “relative binding free energy” value is -0.04 kcal/mol.
As to AATTTCACGTGCTGTG, the “relative binding free energy” value came to 0.12 kcal/mol.
ATCTGCACGTGGTTTT: the “relative binding free energy” value came to 0 kcal/mol.
As for ATCAGCACGTGGGATT, the “relative binding free energy” value is -0.12 kcal/mol.
Consider GGGTTCACGTGTGTTG, for which the “relative binding free energy” value amounted to 0.3 kcal/mol.
Take TTGCGCACGTGTGGGC: the “relative binding free energy” value is -0.14 kcal/mol.
For the sequence GTAAACACGTGTGTTA, the “relative binding free energy” value is -0.01 kcal/mol.
With ATTGTCACGTGGGCTT, the “relative binding free energy” value stood at 0.02 kcal/mol.
Turning to AGGATCACGTGGCGGA, the “relative binding free energy” value is 0.25 kcal/mol.
Under TTTGTCACGTGACCGT stands 0.17 kcal/mol; under GTAGACACGTGCGGAG, 0.01 kcal/mol.
Turning to CGGAGCACGTGTGTGA, the “relative binding free energy” value was -0.12 kcal/mol.
On to GATGACACGTGTGGTA, for which the “relative binding free energy” value is 0.29 kcal/mol.
Turning to GGAGTCACGTGTGAGT, the “relative binding free energy” value stood at 0.13 kcal/mol.
Consider GTCAGCACGTGGCTTG, for which the “relative binding free energy” value is -0.04 kcal/mol.
Take TCTTTCACGTGATTGT: the “relative binding free energy” value is 0.31 kcal/mol.
As to TGTTGCACGTGCAATT, the “relative binding free energy” value was -0.11 kcal/mol.
Turning to TTGGACACGTGACTTT, the “relative binding free energy” value came to 0.15 kcal/mol.
On to ATAAGCACGTGGCGTG, for which the “relative binding free energy” value was -0.13 kcal/mol.
AGGTTCACGTGTGACG: the “relative binding free energy” value came out at 0.34 kcal/mol.
As to CTTTGCACGTGTGGGG, the “relative binding free energy” value worked out at 0.1 kcal/mol.
As for TAGTGCACGTGCTGGT, the “relative binding free energy” value was -0.06 kcal/mol.
Consider TCTGGCACGTGGATGT, for which the “relative binding free energy” value stood at 0 kcal/mol.
For GGGTGCACGTGTGGCT the value was 0.16 kcal/mol; for AGGTTCACGTGTTTCG, 0.22 kcal/mol; for ATGATCACGTGACAGG, 0.27 kcal/mol.
In the case of GTTGGCACGTGTGCGG, the “relative binding free energy” value was -0.08 kcal/mol.
Turning to CGGTGCACGTGGGATA, the “relative binding free energy” value was -0.18 kcal/mol.
TAGTTCACGTGTGCAG: the “relative binding free energy” value came to 0.19 kcal/mol.
Under CTTGTCACGTGTAGTA stands 0.11 kcal/mol; under TAGGTCACGTGCTGGC, 0 kcal/mol; under TATTTCACGTGTTACT, 0.22 kcal/mol.
Under ATGTCCACGTGATTTG stands 0.17 kcal/mol; under TTTAGCACGTGCGCGT, -0.18 kcal/mol; under GGTAACACGTGGTAAT, 0.11 kcal/mol.
As to AGTGGCACGTGGTTAG, the “relative binding free energy” value is -0.21 kcal/mol.
With TCGTGCACGTGTCGGA, the “relative binding free energy” value is -0.01 kcal/mol.
CGGAACACGTGTGGCG: the “relative binding free energy” value worked out at 0.17 kcal/mol.
Turning to ATATTCACGTGGGAAT, the “relative binding free energy” value came to 0.1 kcal/mol.
GTGCGCACGTGGGATA: the “relative binding free energy” value is -0.11 kcal/mol.
For GCACGCACGTGAAGGG, the “relative binding free energy” value turned out to be 0.32 kcal/mol.
On to TGTTACACGTGTAAGT, for which the “relative binding free energy” value was determined as 0.25 kcal/mol.
For the sequence CTTTACACGTGGGCTT, the “relative binding free energy” value was -0.03 kcal/mol.
For GCAAGCACGTGTGGGG, the “relative binding free energy” value was -0.03 kcal/mol.
With TAGGGCACGTGGAGGG, the “relative binding free energy” value was -0.06 kcal/mol.
Under CGGGTCACGTGGGGGG stands -0.05 kcal/mol; under TTGATCACGTGAGGTC, 0.42 kcal/mol; under TTTTGCACGTGTTCCG, -0.1 kcal/mol.

Values taken from the BET-seq Pho4 binding data (Le et al. 2018).
